Measurements reported in paper PMC9911399, “Two distinct binding modes provide the RNA-binding protein RbFox with extraordinary sequence specificity”.
Positions count from the first letter of the chain named. The list shows a part of the results.

T1: RBFOX1 RRM (Homo sapiens, UniProt Q9NWB1 109-208)
T1 sequence: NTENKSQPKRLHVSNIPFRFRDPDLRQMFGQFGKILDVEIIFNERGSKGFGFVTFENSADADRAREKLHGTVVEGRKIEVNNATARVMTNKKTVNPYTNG

B1: CAUCGUU (DNA:RNA)
RNA: GGGAGACCGGAAUUCAGAUUGUCCCAUCGUUUUAAAUCCCGUCGUAGCCACCA
DNA 1: CAATCTGAATTCCGGTCTCCC
DNA 2: TGGTGGCTACGACGGGATT
B2: GUCCUAA (DNA:RNA)
RNA: B1 RNA with C25G, A26U, U27C, G29U, U30A, U31A
DNA 1: CAATCTGAATTCCGGTCTCCC
DNA 2: TGGTGGCTACGACGGGATT
B3: UCAUUCU (DNA:RNA)
RNA: B1 RNA with C25U, A26C, U27A, C28U, G29U, U30C
DNA 1: CAATCTGAATTCCGGTCTCCC
DNA 2: TGGTGGCTACGACGGGATT
B4: CGCCGGU (DNA:RNA)
RNA: B1 RNA with A26G, U27C, U30G
DNA 1: CAATCTGAATTCCGGTCTCCC
DNA 2: TGGTGGCTACGACGGGATT
B5: CACGAAC (DNA:RNA)
RNA: B1 RNA with U27C, C28G, G29A, U30A, U31C
DNA 1: CAATCTGAATTCCGGTCTCCC
DNA 2: TGGTGGCTACGACGGGATT
B6: ACGCAGA (DNA:RNA)
RNA: B1 RNA with C25A, A26C, U27G, G29A, U30G, U31A
DNA 1: CAATCTGAATTCCGGTCTCCC
DNA 2: TGGTGGCTACGACGGGATT
B7: UUGCGGG (DNA:RNA)
RNA: B1 RNA with C25U, A26U, U27G, U30G, U31G
DNA 1: CAATCTGAATTCCGGTCTCCC
DNA 2: TGGTGGCTACGACGGGATT
B8: GUUACUA (DNA:RNA)
RNA: B1 RNA with C25G, A26U, C28A, G29C, U31A
DNA 1: CAATCTGAATTCCGGTCTCCC
DNA 2: TGGTGGCTACGACGGGATT
B9: AAGGCUC (DNA:RNA)
RNA: B1 RNA with C25A, U27G, C28G, G29C, U31C
DNA 1: CAATCTGAATTCCGGTCTCCC
DNA 2: TGGTGGCTACGACGGGATT
B10: UUUUUAC (DNA:RNA)
RNA: B1 RNA with C25U, A26U, C28U, G29U, U30A, U31C
DNA 1: CAATCTGAATTCCGGTCTCCC
DNA 2: TGGTGGCTACGACGGGATT
B11: GCGCAUU (DNA:RNA)
RNA: B1 RNA with C25G, A26C, U27G, G29A
DNA 1: CAATCTGAATTCCGGTCTCCC
DNA 2: TGGTGGCTACGACGGGATT
B12: GAUCUGU (DNA:RNA)
RNA: B1 RNA with C25G, G29U, U30G
DNA 1: CAATCTGAATTCCGGTCTCCC
DNA 2: TGGTGGCTACGACGGGATT
B13: UUAAUUU (DNA:RNA)
RNA: B1 RNA with C25U, A26U, U27A, C28A, G29U
DNA 1: CAATCTGAATTCCGGTCTCCC
DNA 2: TGGTGGCTACGACGGGATT
B14: CAAGUGG (DNA:RNA)
RNA: B1 RNA with U27A, C28G, G29U, U30G, U31G
DNA 1: CAATCTGAATTCCGGTCTCCC
DNA 2: TGGTGGCTACGACGGGATT
B15: CGGGCAG (DNA:RNA)
RNA: B1 RNA with A26G, U27G, C28G, G29C, U30A, U31G
DNA 1: CAATCTGAATTCCGGTCTCCC
DNA 2: TGGTGGCTACGACGGGATT
B16: UUGUGGG (DNA:RNA)
RNA: B1 RNA with C25U, A26U, U27G, C28U, U30G, U31G
DNA 1: CAATCTGAATTCCGGTCTCCC
DNA 2: TGGTGGCTACGACGGGATT
B17: GCAAGGA (DNA:RNA)
RNA: B1 RNA with C25G, A26C, U27A, C28A, U30G, U31A
DNA 1: CAATCTGAATTCCGGTCTCCC
DNA 2: TGGTGGCTACGACGGGATT
B18: GUAUUCU (DNA:RNA)
RNA: B1 RNA with C25G, A26U, U27A, C28U, G29U, U30C
DNA 1: CAATCTGAATTCCGGTCTCCC
DNA 2: TGGTGGCTACGACGGGATT
B19: GGUAAGC (DNA:RNA)
RNA: B1 RNA with C25G, A26G, C28A, G29A, U30G, U31C
DNA 1: CAATCTGAATTCCGGTCTCCC
DNA 2: TGGTGGCTACGACGGGATT
B20: CGGGAGC (DNA:RNA)
RNA: B1 RNA with A26G, U27G, C28G, G29A, U30G, U31C
DNA 1: CAATCTGAATTCCGGTCTCCC
DNA 2: TGGTGGCTACGACGGGATT
B21: AAUUACC (DNA:RNA)
RNA: B1 RNA with C25A, C28U, G29A, U30C, U31C
DNA 1: CAATCTGAATTCCGGTCTCCC
DNA 2: TGGTGGCTACGACGGGATT
B22: CCUUGGC (DNA:RNA)
RNA: B1 RNA with A26C, C28U, U30G, U31C
DNA 1: CAATCTGAATTCCGGTCTCCC
DNA 2: TGGTGGCTACGACGGGATT
B23: GACGUUC (DNA:RNA)
RNA: B1 RNA with C25G, U27C, C28G, G29U, U31C
DNA 1: CAATCTGAATTCCGGTCTCCC
DNA 2: TGGTGGCTACGACGGGATT
B24: GAACGUC (DNA:RNA)
RNA: B1 RNA with C25G, U27A, U31C
DNA 1: CAATCTGAATTCCGGTCTCCC
DNA 2: TGGTGGCTACGACGGGATT
B25: AGUCAGG (DNA:RNA)
RNA: B1 RNA with C25A, A26G, G29A, U30G, U31G
DNA 1: CAATCTGAATTCCGGTCTCCC
DNA 2: TGGTGGCTACGACGGGATT
B26: UCUUACC (DNA:RNA)
RNA: B1 RNA with C25U, A26C, C28U, G29A, U30C, U31C
DNA 1: CAATCTGAATTCCGGTCTCCC
DNA 2: TGGTGGCTACGACGGGATT
B27: CGCGUCC (DNA:RNA)
RNA: B1 RNA with A26G, U27C, C28G, G29U, U30C, U31C
DNA 1: CAATCTGAATTCCGGTCTCCC
DNA 2: TGGTGGCTACGACGGGATT
B28: CAUCAUA (DNA:RNA)
RNA: B1 RNA with G29A, U31A
DNA 1: CAATCTGAATTCCGGTCTCCC
DNA 2: TGGTGGCTACGACGGGATT
B29: GAGCCGC (DNA:RNA)
RNA: B1 RNA with C25G, U27G, G29C, U30G, U31C
DNA 1: CAATCTGAATTCCGGTCTCCC
DNA 2: TGGTGGCTACGACGGGATT
B30: CUACACA (DNA:RNA)
RNA: B1 RNA with A26U, U27A, G29A, U30C, U31A
DNA 1: CAATCTGAATTCCGGTCTCCC
DNA 2: TGGTGGCTACGACGGGATT
B31: GUCUGGG (DNA:RNA)
RNA: B1 RNA with C25G, A26U, U27C, C28U, U30G, U31G
DNA 1: CAATCTGAATTCCGGTCTCCC
DNA 2: TGGTGGCTACGACGGGATT

These binders were tested against T1, RBFOX1 RRM (assay: EMSA; HiTS-Eq, 1 nM pool, 10 min; buffer printed only for the single-RNA assays: 10 mM Tris pH 7.5, 150 mM NaCl, 3.4 mM EDTA, 0.001% NP-40, 30 C). Conditions: tags: His6 N-terminal (pET28a); label: 5' 32P.
In short: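 Purified wild-type or mutant RbFox RRM at increasing concentrations was equilibrated with 1 nM of 5′-radiolabelled RNA carrying 7 randomized nucleotides for 10 min in 50 µL. Unbound RNA was separated by 8% native PAGE and sequenced. Relative association constants came from read-count changes of each RNA species compared with the control reaction, normalised to the cognate motif.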

| Binder | binding signal |
| --- | --- |
| B1 | 0.00523 KA relative to UGCAUGU |
| B2 | 0.00546 KA relative to UGCAUGU |
| B3 | 0.00326 KA relative to UGCAUGU |
| B4 | 0.00989 KA relative to UGCAUGU |
| B5 | 0.00466 KA relative to UGCAUGU |
| B6 | 0.00747 KA relative to UGCAUGU |
| B7 | 0.0126 KA relative to UGCAUGU |
| B8 | 0.00518 KA relative to UGCAUGU |
| B9 | 0.014 KA relative to UGCAUGU |
| B10 | 0.00764 KA relative to UGCAUGU |
| B11 | 0.0173 KA relative to UGCAUGU |
| B12 | 0.0222 KA relative to UGCAUGU |
| B13 | 0.00947 KA relative to UGCAUGU |
| B14 | 0.00449 KA relative to UGCAUGU |
| B15 | 0.0252 KA relative to UGCAUGU |
| B16 | 0.0108 KA relative to UGCAUGU |

| Binder | binding signal |
| --- | --- |
| B17 | 0.00279 KA relative to UGCAUGU |
| B18 | 0.00664 KA relative to UGCAUGU |
| B19 | 0.00141 KA relative to UGCAUGU |
| B20 | 0.0286 KA relative to UGCAUGU |
| B21 | 0.00174 KA relative to UGCAUGU |
| B22 | 0.0151 KA relative to UGCAUGU |
| B23 | 0.0182 KA relative to UGCAUGU |
| B24 | 0.0146 KA relative to UGCAUGU |
| B25 | 0.0138 KA relative to UGCAUGU |
| B26 | 0.00383 KA relative to UGCAUGU |
| B27 | 0.00909 KA relative to UGCAUGU |
| B28 | 0.00188 KA relative to UGCAUGU |
| B29 | 0.00989 KA relative to UGCAUGU |
| B30 | 0.00145 KA relative to UGCAUGU |
| B31 | 0.0145 KA relative to UGCAUGU |
